The source gives no read counts; variants with many changes may rest on few reads.
B1: OR4K15 (parent)
chain: GUUAACGGUCAUAGGCCAUGGAAACUAGGAGCACCAUUUCGCUGCCAGUGAAGAAAUGAACAAAGAAAAUCUGGGCCAGGCAGGCAUCAAAAGAAAUAGUCUUGCGCUCAACCAGAAAGUCUGUAAUCAUUUUAAGGGUA

Variants of: B1
Assay: self-cleavage, relative activity (ratio to wild type); higher = more cleavage; in vitro, sequencing; the parent is a self-cleaving ribozyme

| Variant | self-cleavage |
| --- | --- |
| GUUAACGGUCAUAGGCCAUGGAAACUAGGAGCACCACUUCGCUGCCAGUGAAGGAAUGAACAAAGGAAAUCUGGGCCAGGCAGGCAUCAAAAGGAAUAGUCUUGCGCUCAACCAGAAAGUCUGUAAUCAUUUUAAGGGUA [U37C A54G A66G A94G] | 1.07 |
| GUUAACGGUCAUAGGCCAUGGAAACUAGGAGCACCACUUCGCUGCCAGUGAAGGAAUGAACAAAGAAAAUCUGGGCCAGGCAGGCAUCAAAAGAAAUAGCCUUGCGCUCAACCAGAAAGUCUGUAAUCAUUUUAAGGGUA [U37C A54G U100C] | 2.25 |
| GUUAACGGUCAUAGGCCAUGGAAACUAGGAGCACCACUUCGCUGCCAGUGAUGAGAUGAACAAAGAAAAUCUGGGCCAGGCAGGCAUCAAAAGAAAUAGUCUUGCGCACAACCAGAAAGUCUGUAAUCAUUUUAAGGGUA [U37C A52U A55G U108A] | 0.04 |
| GUUAACGGUCAUAGGCCAUGGAAACUAGGAGCACCACUUCGCUGCCAGUGAAGAAAUGAGCAAAGAAAAUUUGGGCCAGGCAGGCAUCUAAAGAAAUAGUCUUGCGCUCAACCAGAAAGUCUGUAAUCAUUUUAAGGGUA [U37C A60G C71U A89U] | 0.32 |
| GUUAACGGUCAUAGGCCAUGGAAACUAGGAGCACCACUUCGCUGCCAGUGAGGAAAUGAACAAGGAAAAUCUGGGCCAGGCAGGCAUCGAAGGAAAUAGUCUUGCGCUCAACCAGAAAGUCAGUAAUCAUUUUAAGGGUA [U37C A52G A64G A89G A92G U122A] | 0.46 |
| GUUAACGGUCAUAGGCCAUGGAAACUAGGAGCACCACUUCGCUGCCAGUGAAGAGAUGAACAAAGAAAAUCUGGGCCAGGCAGGCAUCAAAAGAAAUAGUCUUGCGCUCAACCAGAGAGUCUGUAAUCAUUUUAAGGGUA [U37C A55G A117G] | 1.37 |
| GUUAACGGUCAUAGGCCAUGGAAACUAGGAGCACCACUUCGCUGCCAGUGAAGAAAUGAGCAAAGAAAAUCUGGGCCAGGCAGGCAUCAAAAGAAAUAGUCUUGCGCUCAACCGGAAAGUCUGUAAUCAUUUUAAGGGUA [U37C A60G A114G] | 0.27 |
| GUUAACGGUCAUAGGCCAUGGAAACUAGGAGCACCACUUCGCUGCCAGUGAAGAAAUGCACAAAGAAAAUCUGGGCCAGGCAGGCAUCAAGAGAAAUAGUCUUGCGCUCAACCAGAAAGUCUGUAAUCAUUUUAAGGGCA [U37C A59C A91G U139C] | 0.59 |
| GUUAACGGUCAUAGGCCAUGGAAACUAGGAGCACCACUUCGCUGCCAGUGAAGAUAUGAACAAAGAAAAUCUGGGCCAGGCAGGCAUCAAAAGAAAUAGUCUUGCGCUCAACCAGGAAGUCUGUAAUCAUUUUAAGGGUA [U37C A55U A116G] | 0.45 |
| GUUAACGGUCAUAGGCCAUGGAAACUAGGAGCACCACUUCGCUGCCAGUGAGAAAAUGAACAAAGAAAAUCUGGGCCAGGCAGGCAUCAAAAGAAAUAGUCUUGCGCUCAACCAGAAAGUCUGUAAUCAUCCUAAGGGUA [U37C A52G G53A U131C U132C] | 0.32 |
| GUUAACGGUCAUAGGCCAUGGAAACUAGGAGCACCACUUCGCUGCCAGUGAAGAAGUGAACAAGGAAAAUCUGGGCCAGGCAGGCAUCAAAAGAAAUAGUCUUGCGCUCAACCAGAAAGUCUGUAAUCAUUUUAAGGGUA [U37C A56G A64G] | 1.07 |
| GUUAACGGUCAUAGGCCAUGGAAACUAGGAGCACCACUUCGCUGCCAGUGAAGAAAUGAACAGAGAAAAUCUGGGCCAGGCAGGCAUCAGAAGAAAUAGUCUUGCGCUCAACCAGAAAGUCUGUAAUCAUUUUAAGGGUA [U37C A63G A90G] | 2.07 |
| GUUAACGGUCAUAGGCCAUGGAAACUAGGAGCACCACUUCGCUGCCAGUGAAGAAAUGUACAAAGAAAAUCCGGGCCAGGCAGGCAUCAAAAGAAAUAGUCUUGCGCUCAACCAGAAAGUCUGUAAUCAUUUUAAGGGUA [U37C A59U U72C] | 0.31 |
| GUUAACGGUCAUAGGCCAUGGAAACUAGGAGCACCACUUCGCUGCCAGUGAAGGAAUGAACAAAGAAAAUCUGGGCCAGGCAGGCAACGAAAGGAAUAGUCUUGCGCUCAACCAGAAAGUCUGUAAUCAUUUUAAGGGUA [U37C A54G U87A A89G A94G] | 0.76 |
| GUUAACGGUCAUAGGCCAUGGAAACUAGGAGCACCACUUCGCUGCCAGUGAAGGAAUGAACAAAGAAAGUCUGGGCCAGGCAGGCAUCAAAAGAAAUAGUCUUGCGCUCAACCGGAAAGUCUGUAACCAUUUUAAGGGUA [U37C A54G A69G A114G U127C] | 0.2 |
| GUUAACGGUCAUAGGCCAUGGAAACUAGGAGCACCACUUCGCUGCCAGUGAAGAAAUGAGCAAAGAAAAUCUGGGCCAGGCAGGCAUCAAGAGAAAUAGUCUUGCGCUCAACCAGAAAGUCUGUAAUCAUUUUAAGGGUA [U37C A60G A91G] | 0.62 |
| GUUAACGGUCAUAGGCCAUGGAAACUAGGAGCACCACUUCGCUGCCAGUGAAGAAAUGUACAAAGAAAAUCUGGGCCAGGCAGGCAUCAAAAGAAAUAGUCUUGCGCUCAACCAGAGAGUCUGUAAUCAUUUUAAGGGUA [U37C A59U A117G] | 2.14 |
| GUUAACGGUCAUAGGCCAUGGAAACUAGGAGCACCACUUCGCUGCCAGUGAAGACAUGAACAAAGAGAAUCUGGGCCAGGCAGGCAUCAAAAGAAAUAGUCUUGCGCUCAACCAGAAAGUCUGUAUUCAUUUUAAGGGUA [U37C A55C A67G A126U] | 1.43 |
| GUUAACGGUCAUAGGCCAUGGAAACUAGGAGCACCACUUCGCUGCCAGUGAAGAUAUGAUCAAAGAAAAUCUGGGCCAGGCAGGCAUCAAAAGAAAUAGUCAUGCGCUCAACCAGAAAGUCUGUAAUCAUUUUAAGGGUA [U37C A55U A60U U102A] | 0.91 |
| GUUAACGGUCAUAGGCCAUGGAAACUAGGAGCACCACUUCGCUGCCAGUGAAGAAAUGAACGAAGAAAAUCUGGGCCAGGCAGGCAUCAAAAGAAAUAGUCUUGCGCUCAACCAGAGAGUCUGUAAUCAUUUUAAGGGUA [U37C A62G A117G] | 0.88 |
| GUUAACGGUCAUAGGCCAUGGAAACUAGGAGCACCACUUCGCUGCCAGUGAAGAAAUGACCAAAGAAAAUCUGGGCCAGGCAGGCAUCAAAAGAAAUAGUCUUGCGCUCAACCAGAGAGUCUGUAGUCAUUUUAAGGGUA [U37C A60C A117G A126G] | 2.1 |

| Variant | self-cleavage |
| --- | --- |
| GUUAACGGUCAUAGGCCAUGGAAACUAGGAGCACCACUUCGCUGCCAGUGAUGAAAUGAACAAAGAGAAUCUGGGCCAGGCGGGCAUCAAGAGAAAUAGUUUUGCGCUCAACCAGAAAGUCUGUAAUCACUUUAAGGGUA [U37C A52U A67G A82G A91G C101U U130C] | 0.01 |
| GUUAACGGUCAUAGGCCAUGGAAACUAGGAGCACCACUUCGCUGCCAGUGAAGAAAUGAACAGAGAAAAUCUGGGCCUGGCAGGCAUCAAAAGAAAUAGUCUUGCGCUCAACCAGAAAGUCUGUAAUCGUUUUAAGGGUA [U37C A63G A78U A129G] | 0.26 |
| GUUAACGGUCAUAGGCCAUGGAAACUAGGAGCACCACUUCGCUGCCAGUGAAGAGAUGAACAAAGAGAAUCUGGGCCAGGCAGGCAUCAAAAGAAAUAGUCUUGCGCUCAACCAGAAAGUCUGUAAUCAUUUUAAGGGUA [U37C A55G A67G] | 1.54 |
| GUUAACGGUCAUAGGCCAUGGAAACUAGGAGCACCACUUCGCUGCCAGUGAAGAAAUGAACGAAGAAAAUCUGGGCCAGGCGGGCAUCAAAAGAAAUAGUCUUGCGCUCAACCAGAAAGUCUGUAAUCAUUUUAAGGGUA [U37C A62G A82G] | 0.84 |
| GUUAACGGUCAUAGGCCAUGGAAACUAGGAGCACCACUUCGCUGCCAGUGAAGAAAUGAACUAAGAAAAUCUGGGCCAAGCAGGCAUCAAAAGAAAUAGUCUUGCGCCCAACCAGAAAGUCAGUAAUCAUUUUGAGGGUA [U37C A62U G79A U108C U122A A134G] | 0.01 |
| GUUAACGGUCAUAGGCCAUGGAAACUAGGAGCACCACUUCGCUGCCAGUGAAGAAAUGGACAAAGAAAACCUGGGCCAGGCAGGCAUCAAAAGAAAUAGUCUUGCGCUCAACCAGAAAGUCUGUAAGCAUUUUUAGGGUA [U37C A59G U70C U127G A134U] | 0.32 |
| GUUAACGGUCAUAGGCCAUGGAAACUAGGAGCACCACUUCGCUGCCAGUGAAGAAAUGGACAAAGAAAAUCUGGGCCAGGCAGGCAUCAAAAGAGACAGUCUUGCGCUCAACCAGAUAGUCUGUAAUCAUUUUAAGGGUA [U37C A59G A95G U97C A117U] | 0 |
| GUUAACGGUCAUAGGCCAUGGAAACUAGGAGCACCACUUCGCUGCCAGUGAAGGAAUGAACAAAGAAAAUCUGGGCCAGGCAGGCAUCAAAAGAAAUAGUCUUGCGCUCGACCAGAAAGUCUGUAAUCAUUUUAAGGGUA [U37C A54G A110G] | 0.1 |
| GUUAACGGUCAUAGGCCAUGGAAACUAGGAGCACCACUUCGCUGCCAGUGAAGAGAUGAACAAAGAAAGUCUGGGCCAGGCAGGCAUCAAAAGAAAUAGUCUUGCGCUCAACCAGAAAGUCUGUAAUCAUUUUAAGGGUA [U37C A55G A69G] | 1.42 |
| GUUAACGGUCAUAGGCCAUGGAAACUAGGAGCACCACUUCGCUGCCAGUGAAGAAAUGAACAGAGGAAAUCUGGGCCAGGCAGGCAUCAAAAGAAAUAGUCUUGCGCUCAACCAGAGAGUCUGUAAUCAUUUUAAGGGUA [U37C A63G A66G A117G] | 1.68 |
| GUUAACGGUCAUAGGCCAUGGAAACUAGGAGCACCACUUCGCUGCCAGUGAAGGAAUGAACAAAGAAAAUCUGGGCCAUGCAGGCAUCAAAAGAAAUAGUCUUGCGCUCAACCAGAAAGCCUGUAAUCAUUUUAAGGGUA [U37C A54G G79U U120C] | 0.05 |
| GUUAACGGUCAUAGGCCAUGGAAACUAGGAGCACCACUUCGCUGCCAGUGAAGAGAUGAACAAAGAAAAUCUGGGCCAGGCAGGCGCCAUAAGAAAUAGUCUUGCGCUCAACCAGAAAGUCCGUAAUCAUUUUAAGGGUA [U37C A55G A86G U87C A90U U122C] | 0.11 |
| GUUAACGGUCAUAGGCCAUGGAAACUAGGAGCACCACUUCGCUGCCAGUGAAGAAAUGAACAAUGUAAAUCUGGGCCAGGCAUGCAUCAAAAGAAAUAGUCUUGCGCUCAACCAGAAAGUCUGUAAUCAUUUUAAGGGUG [U37C A64U A66U G83U A140G] | 0.51 |
| GUUAACGGUCAUAGGCCAUGGAAACUAGGAGCACCACUUCGCUGCCAGUGAAGAAAUGAACCAAGAGAAUCUGGGCCAGGCAGGCUACAAGAGAAAUAGUCUUGCGCUCAACCAGAAAGUCUGUAAUCAUUUUAAGGGUA [U37C A62C A67G A86U U87A A91G] | 2.27 |
| GUUAACGGUCAUAGGCCAUGGAAACUAGGAGCACCACUUCGCUGCCAGUGAAGAGAUGAACAAAGAAGAUCUGGGCCAGGCAGGCAUCAAAAGGAAUAGUCUUGCGCUCAACCAGAGAGUCUGUAAUCAUUUUAAGGGUA [U37C A55G A68G A94G A117G] | 1.47 |
| GUUAACGGUCAUAGGCCAUGGAAACUAGGAGCACCACUUCGCUGCCAGUGAAGAGAUGAACAAAGAAAAUCUGGGCCAGGCAGGCAUCAAAAGAAAUAGUCUUGCGCUCAACCAGGAAGUCUGUAAUCAUUUUAAGGGUA [U37C A55G A116G] | 1.5 |
| GUUAACGGUCAUAGGCCAUGGAAACUAGGAGCACCACUUCGCUGCCAGUGAAGAAGUGAACAAAGAAAAUCUGGGCCAGGCAGGCAUCAAAAGAAAUAGUCUUGCGCUCGACCAGAGAGUCUGUAAUCAUUUUAAGGGUA [U37C A56G A110G A117G] | 0.3 |
| GUUAACGGUCAUAGGCCAUGGAAACUAGGAGCACCACUUCGCUGCCAGUGAAGGAAUGAACAAAGAAAAUCUGGGCCAGGCAGGCAUCAAAAGAAAUAGUCUUGCGCUCAACCAGAAAGUCUGUAAUCGUUUUAAGGGUA [U37C A54G A129G] | 1.53 |
| GUUAACGGUCAUAGGCCAUGGAAACUAGGAGCACCACUUCGCUGCCAGUGAGGAAAUGAACAAAGAAAAUCUGGGCCAGGCAGGCAUCAAAAGAAAUAGUCUUGCGCCCAACCGGAAAGUCUGUAAUCAUUUUAAGGGUA [U37C A52G U108C A114G] | 0 |
| GUUAACGGUCAUAGGCCAUGGAAACUAGGAGCACCACUUCGCUGCCAGUGAAGAAGUGAACAAAGAAAAUCUGGGCCAGGCAGGCAUCAAAAGAAAUAGUCUUGCGCUCAACCAGAAAGUCUGUAAUCAUUUGAAGGGUA [U37C A56G U133G] | 2.23 |

Reference: the RNAGym collection of RNA variant scans (doi:10.7554/elife.90254)
